Measurements taken from the supplement of paper PMC10126150.
Sequences with one replicate were seen in a single cluster, so their values are uncertain.

System: ATP
Assay: switch fluorescence ratio, 500 uM ATP over buffer (Cy3 cluster intensity, sum of 5 cycles each) (fold (ratio)); higher = stronger signal-on switching upon ATP binding; sequences stand for … in TCGTCGGCAGCGTCAGATGTGTATAAGAGACAGTTTTTTTTTTTTTTTTTTTTTTTTT…TC
Conditions: aptamer strand: ATP DNA aptamer (quencher-CACCTGGGGGAGTATTGCGGAGGAAGG + anchor), 100 nM annealed; ATP concentration: 500 uM; one replicate
Procedure, shortened: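 The fluorescence ratio divides summed target-cycle Cy3 intensity by summed buffer-cycle Cy3 intensity for each cluster and is averaged per switch-domain sequence. Cy3-labelled switching-strand clusters on a modified Illumina MiSeq flow-cell were annealed to 100 nM quencher-labelled ATP aptamer, then imaged in selection buffer and again after 15 min with 500 uM ATP at 22 °C. Five such cycles were run, with NaOH stripping and re-annealing between them, and clusters outside 100-1000 RFU were excluded.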
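Also: ATP exposure 15 min at 22 °C before imaging.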

| Sequence | switch fluorescence ratio |
| --- | --- |
| AGGTCATGCA | 1 |
| TTTATAGGCC | 0.981 |
| TTGCATGGGG | 1.04 |
| CTAGCGCAAA | 6.18 |
| TTGGTGTTCC | 1.07 |
| ATTTGTACGC | 1.05 |
| TGAATAAGTG | 1 |
| CAGTGGTTTT | 0.996 |
| TCGTAAAAAG | 1.04 |
| GGCTGGTCAA | 1 |
| TAAGCAGAGT | 1 |
| TATGGATGAT | 1.02 |
| CGACAAAAGA | 3.03 |
| GCTCTTATAG | 0.985 |
| CAAGGCCCGC | 1.02 |
| TAAATCGGCC | 1.14 |
| CCTGGCTATT | 1.17 |
| CCTTTTTGAC | 1.01 |
| TTAGGCCATT | 0.993 |
| ACTAGCGTTC | 1.01 |
| ACTGAGCCAG | 1.04 |
| CGCGAAGTTT | 0.968 |
| TCGCTAGGGA | 0.96 |

| Sequence | switch fluorescence ratio |
| --- | --- |
| CTTTGGCTAG | 1.01 |
| GGGCTCGTCT | 1.01 |
| GACCTTGGTT | 1.04 |
| CAACTTAACA | 1.09 |
| AATAGCGG | 0.99 |
| GCATGGTGTT | 1.02 |
| ATCGTGCTTC | 0.971 |
| ACAAGGCGCT | 1.03 |
| TAGGAAGTTA | 1.03 |
| CCGCTTGTGA | 1.15 |
| CGAGCCCAG | 2.79 |
| GAAGAATTGG | 0.995 |
| ACCGAAAAGA | 0.99 |
| TTCCTCGGGC | 1.71 |
| CAGGTCCCGT | 0.98 |
| AGGACTTCAA | 0.978 |
| TCTACACCAT | 1.1 |
| ACGGTCAAAT | 1.1 |
| TATTTCAAAT | 0.972 |
| CAAGACTTTT | 0.989 |
| GACCTTGTTT | 1 |
| CCGGTTGC | 1.91 |
| TAAACTTTCA | 1.34 |

| Sequence | switch fluorescence ratio |
| --- | --- |
| GGCTAAGCAT | 1.04 |
| CCTGTGAAGT | 1.03 |
| ATTTTTGCAC | 1 |
| CCGAAACCAG | 1.13 |
| AGCTGCGCTA | 0.972 |
| TGTATGGG | 1.01 |
| CGTAAGCGGG | 0.992 |
| TTGCGCGTGC | 1.01 |
| TCGATGTCAT | 1.02 |
| GCTTTATTTC | 1 |
| ATTTTCACGC | 1.08 |
| CGCGTAGAGA | 1.05 |
| CGTTGTGTTG | 0.99 |
| AACATTCTGC | 1.01 |
| GTGCACCTTT | 1.01 |
| GATGTACTTT | 1.04 |
| ATCTAGCCCC | 1.01 |
| TATTTGGACA | 1 |
| ACCTTCGTTT | 1.11 |
| TGAATATCC | 1.04 |
| ATGTTAAACT | 1.06 |
| ATATGGGGAT | 0.976 |
| AATGCAATT | 0.963 |

| Sequence | switch fluorescence ratio |
| --- | --- |
| GTACGGCTGC | 1.09 |
| GGCACGCGTA | 1.02 |
| AGAATGCAAT | 0.971 |
| ATAGTGTAGG | 0.999 |
| TAGGTTTACC | 1.01 |
| GCACCAACGA | 1.54 |
| CGGTTACGCG | 0.997 |
| ACCTGACGAA | 3.04 |
| GGCAGGTCTG | 0.985 |
| CGCCTAAACT | 1.03 |
| CAGTAGCATG | 1.59 |
| ATAAATGGGA | 0.976 |
| CGGGACAGCT | 0.983 |
| ACTGGTTACG | 1.03 |
| GCCAGCGTCG | 0.964 |
| CACCGTGTCA | 1.03 |
| CGTAGACATT | 1.05 |
| CACAAGGTTC | 0.996 |
| ATGGATTACT | 1.02 |
| TCAGCTGGG | 0.996 |
| TAGACCGCAC | 2.37 |
| CTCGAGCGAG | 1.02 |
| TTTTCGTGAG | 1.02 |

| Sequence | switch fluorescence ratio |
| --- | --- |
| AGGTAAGGGG | 0.997 |
| TCGGCGGCGC | 1.01 |
| CTCAAGAGAG | 1.17 |
| TACACGATC | 0.983 |
| TCCCACATTC | 1.11 |
| TAGGTAAAAT | 1.02 |
| ACGTTGGAGG | 1.05 |
| CTCTGACGCG | 0.978 |
| GAGTCCCTGG | 1.06 |
| AAGAGATGGT | 0.961 |
| ATGCCCCGCT | 0.976 |
| TCGAATGACT | 1.02 |
| CCCCTAACAC | 1.14 |
| CAGTGGGCCG | 0.927 |
| CATAGTTATT | 1 |
| TTTATAAAGC | 0.941 |
| TAACGAAGGC | 1.02 |
| CGGGGAAACG | 0.987 |
| TCCTCGGGAG | 1.08 |
| CGCTAAAGT | 1.4 |
| TGTACCCTGT | 1.04 |
| CAAATACATT | 1.08 |
| GCCTTTTTAG | 1 |

| Sequence | switch fluorescence ratio |
| --- | --- |
| TCCAGTGTTC | 1 |
| GAAATTACGT | 1.04 |
| TAAACTACG | 1.03 |
| AGTGGCCATT | 0.947 |
| CAACCGATC | 2.36 |
| TATATAGTG | 0.996 |
| TTCTTTACGC | 1.04 |
| AAGGTTGTTA | 1 |
| GTCTTGACCG | 1.03 |
| GGGAGCATT | 0.965 |
| AGGGGGGGTC | 0.981 |
| ATGCAGGCGC | 0.903 |
| TTTAGAGAAA | 0.964 |
| GGCAGCGG | 1 |
| AGAGACCTGT | 0.951 |
| GGGGAGATAC | 2.31 |
| CCCGCCTAAG | 1.16 |
| CCCAAAGTT | 1.01 |
| TATTGGGGTG | 1.07 |
| TGCCCCCTTG | 1.05 |
| GCACGTAAG | 1.04 |
| ACTGAAGGCG | 1.01 |
| TCTTTGAGTA | 0.992 |

| Sequence | switch fluorescence ratio |
| --- | --- |
| CGGTATGTGT | 1.07 |
| CGATTTCCTT | 1.01 |
| AACGTCGCCT | 1.03 |
| TATGCACCAG | 1.06 |
| ATGCCACTTT | 0.968 |
| TACGGGGAC | 1.17 |
| GCTGCTTGTT | 1.04 |
| GGCGACCTTC | 1.06 |
| CGTAAAGCGC | 1.03 |
| TTCCATATAG | 1.03 |
| GAGCTTGGGA | 1.01 |
| AGACGGGCTC | 1.02 |
| CATGGACGGG | 1.09 |
| AACATCACG | 1.15 |
| ATCACCTTCT | 1.68 |
| TGTCGAATAT | 0.94 |
| AATCTGTGCT | 0.977 |
| GCCCGTAAGT | 1.05 |
| TGGGCGCCGC | 0.976 |
| GCCAGTAGTA | 0.966 |
